About 50,000 (12%) of roughly 420,000 compounds were called active. Inconclusive results, whose numbers are uncertain, are shown with a selection of clear calls. Calls follow the shape of the dose curve; as a rule, active = well fitted inhibition curve with a large enough effect; inconclusive = small, poorly fitted or top-dose-only effect; inactive = flat fitted curve, though single readings scatter. Potencies of inconclusive entries are left out as doubtful fits.
test: qHTS for Inhibitors of human tyrosyl-DNA phosphodiesterase 1 (TDP1): qHTS in cells in presence of CPT; conditions: chicken DT40 Tdp1-/-;hTDP1 cells + 20 nM CPT, ATP luminescence, 48 h; activity change, negative = growth inhibition: at 46.2 µM (top of the series) unless noted; also: nearly all actives have a fitted effect of over 55% in size
How it was run: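 Chicken DT40 Tdp1-/- cells complemented with human TDP1, 400 cells/well, exposed to compounds plus 20 nM camptothecin for at least 48 h at 37 C; viability read as ATP content by CellTiter-Glo luminescence.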
% is scaled to controls: 0 for no effect and ±100 for the full control effect; potency is read from the fitted curve at half-maximal effect; tags tell the direction and shape of the fitted curve.

Row | Compound | Potency | activity change, negative = growth inhibition
1 | Cc1ccc(C(=O)Nc2ccc(Cl)cn2)cc1 | active: 7.31 µM | 
2 | CSCCC(NS(=O)(=O)c1ccc2c(c1)oc(=O)n2C)C(=O)Nc1ccc(Cl)cc1 (stereo unspecified) | inactive | 
3 | COCCCn1c(-c2ccccc2Cl)n[nH]c1=S | inactive | 
4 | COc1ccc(/C=C/C(=O)NCCSCc2ccco2)cc1 | inactive | 
5 | CC(C)c1ccc(CNc2nc(-c3ccco3)nn2C(=O)c2ccc([N+](=O)[O-])cc2)cc1 | inconclusive [inhibitor, single point] | 
6 | COc1ccc(Cl)cc1C(=O)NNC(=S)NC1CCCCC1 | inactive | 
7 | CC(=O)Nc1ccc(NC(=O)C(C)OC(=O)C2(c3ccc(Cl)cc3)CCCC2)cc1 (stereo unspecified) | inactive | 
8 | COc1cccc(Nc2nc(C)nc3c2oc2ccccc23)c1 | inconclusive [inhibitor, single point] | 
9 | Cc1cc(=O)c2c(O)c(O)ccc2o1 | inconclusive [inhibitor, single point] | 
10 | COc1ccc(NC(=O)Cn2c(=O)n(Cc3ccc4c(c3)OCO4)c(=O)c3ccc(C(=O)NC4CCCCC4)cc32)cc1 | active: 8.2 µM | 
11 | CCOC(=O)c1nnn(-c2nonc2N)c1CSc1ccc(C)cc1 | inconclusive [inhibitor, single point] | 
12 | O=C(Nc1ccccc1)c1nsnc1C(=O)Nc1ccccc1 | inconclusive [inhibitor, single point] | 
13 | COc1ccc2[nH]c3c(c2c1)CCN1C(=O)N([C@@H](C)C(=O)NCc2ccc(F)cc2)C(=O)[C@]31C | inactive | 
14 | O=C(Nc1ccc2c(c1)N(S(=O)(=O)c1cccs1)CCC2)c1c(F)cccc1F | inconclusive [inhibitor, single point] | 
15 | COc1cc2c(C(=O)N3CCN(c4cccc(C(F)(F)F)c4)CC3)cn(CC(C)C)c(=O)c2cc1OC | active: 16.4 µM | 
16 | c1ccc(-n2nnnc2Sc2ncnc3sc4c(c23)CCCC4)cc1 | active: 4.11 µM | 
17 | C=CCNC(=O)c1cccc(C(F)(F)F)c1 |  | inconclusive: -27.3% [inhibitor]
18 | CN1CCN(C(=S)c2ccc(OCC(=O)Nc3cccc(C(F)(F)F)c3)cc2)CC1 | active: 20.6 µM | 
19 | CCn1c(C)c(C)c2cc(C(=O)NCc3ccc(OC(C)C)cc3)ccc21 | inconclusive [inhibitor, single point] | 
20 | CN(C(=O)C1CCC(CNS(=O)(=O)c2cccc3cccnc23)CC1)C1CCCCC1 (stereo unspecified) | inconclusive [inhibitor, single point] | 
21 | CC(C)CCOc1ccc(C2(C)NC(=O)NC2=O)cc1 (stereo unspecified) | inactive | 
22 | COC(=O)[C@]1(C)N[C@H](c2ccc(-c3ccccc3)cc2)[C@@H]2C(=O)N(C)C(=O)[C@@H]21 | inconclusive [inhibitor, single point] | 

Row | Compound | Potency | activity change, negative = growth inhibition
23 | COc1ccccc1/C=N/Nc1nc(C)cc(=O)[nH]1 | inactive | 
24 | O=C(N/N=C/c1coc2ccccc2c1=O)c1cn(-c2ccccc2)nc1-c1ccc(F)cc1 | inconclusive [inhibitor, single point] | 
25 | COc1ccc(S(=O)(=O)Nc2ccc(-n3cnnn3)cc2)cc1Br | inconclusive [inhibitor, partial curve] | 
26 | CCOC(=O)c1cc(OC(C)=O)c2ccc(OC)c(OC)c2c1 | inconclusive [inhibitor, partial curve, poor fit] | 
27 | CCOCCCNc1nc2ccccc2n2c(CC)nnc12 | inconclusive [inhibitor, single point] | 
28 | COc1ccc(-c2noc(N3CCC(C(=O)N4CCN(c5ccccc5F)CC4)CC3)n2)cc1 |  | inconclusive: -27% [inhibitor]
29 | Cc1cccc(NC(=O)C2CCCN(S(=O)(=O)c3c(C)nn(C)c3C)C2)c1 (stereo unspecified) | inconclusive [inhibitor, single point] | 
30 | CC[C@H](C)[C@H](NC(=O)[C@H](C)NC(=O)[C@H](CC(N)=O)NC(=O)[C@H](CCCCN)NC(=O)[C@H](Cc1ccccc1)NC(=O)[C@H](CC(C)C)NC(=O)[C@@H](NC(=O)[C@@H](NC(=O)[C@H](CC(C)C)NC(=O)[C@@H]1CCCN1C(=O)[C@@H](NC(=O)[C@H](CCC(N)=O)NC(=O)[C@H](CO)NC(=O)[C@H](CCCCN)NC(=O)[C@H](CCC(=O)O)NC(=O)[C@H](CO)NC(=O)[C@@H](NC(=O)[C@H](CCSC)NC(=O)[C@H](Cc1ccccc1)NC(=O)CNC(=O)CNC(=O)[C@@H](N)Cc1ccc(O)cc1)[C@@H](C)O)[C@@H](C)O)C(C)C)[C@@H](C)O)C(=O)N[C@H](C(=O)N[C@@H](CCCCN)C(=O)N[C@@H](CC(N)=O)C(=O)N[C@@H](C)C(=O)N[C@@H](Cc1ccc(O)cc1)C(=O)N[C@@H](CCCCN)C(=O)N[C@@H](CCCCN)C(=O)NCC(=O)N[C@@H](CCC(=O)O)C(=O)O)[C@@H](C)CC |  | inactive: -2.12% [at 4.12 µM]
31 | S=C1NCN(Cc2ccco2)CN1c1ccccc1 | inactive | 
32 | O=C(Nc1ccc2c(c1)OCO2)c1cc(-c2ccncc2)nc2ccccc12 | inconclusive [inhibitor, single point] | 
33 | CCn1c2ccccc2nc2cc3c(cc21)c(Cl)c(=O)c1ccccc13 | active: 8.2 µM | 
34 | C[C@]12c3[nH]c4ccc(Cl)cc4c3CCN1C(=O)[C@@H](CC(=O)NCc1cccc(C(F)(F)F)c1)C[C@@H]2C(=O)N1CCCCC1 | inconclusive [inhibitor, single point] | 
35 | CCC(=O)c1ccc(OCc2ccc(C(=O)c3ccccc3)cc2)cc1 | active: 6.51 µM | 
36 | CC(NC(=O)COC(=O)/C=C/c1ccc(Cl)cc1)c1ccccc1 (stereo unspecified) | inactive | 
37 | Cc1cccc2nc(CSc3nncn3-c3ccccc3)cn12 | inconclusive [inhibitor, partial curve, poor fit] | 
38 | COc1cccc(CNC(=O)CCC2CCCN(C3CCOCC3)C2)c1 (stereo unspecified) | inconclusive [inhibitor, single point] | 
39 | Cc1cccc(C)c1-n1nnnc1C(CCc1ccccc1)N1CCN(C/C=C/c2ccccc2)CC1 (stereo unspecified) | inconclusive [inhibitor, single point] | 
40 | COc1cc(-c2nc(-c3ccccn3)no2)cc(OC)c1OC | inconclusive [inhibitor, single point] | 
41 | COc1ccc2occ(C(=O)c3coc4ccc(O)c(CN(C)C)c34)c2c1 | active: 16.4 µM | 
42 | CCn1cc2nc(SCC(=O)Nc3ccccc3F)n(Cc3ccccc3)c(=O)c2n1 | inconclusive [inhibitor, single point] | 
43 | O=C1c2ccc(-c3ccc(Cl)c(C(F)(F)F)c3)cc2S(=O)(=O)c2cccc(C(=O)N3CCN(c4ncc(Br)cn4)CC3)c21 | inactive | 
44 | COCCn1c(SCC(=O)NCc2ccc(F)cc2)nc2ccccc21 | inactive | 

Row | Compound | Potency | activity change, negative = growth inhibition
45 | Cc1ccccc1C(=O)NNC(=O)/C=C\C(=O)O | inconclusive [inhibitor, single point] | 
46 | COc1ccc(C2NC(=S)NC3=C2CCc2ccccc23)cc1OC (stereo unspecified) | inactive | 
47 | Cc1c(C(=O)Nc2ccc(Nc3ccccc3)cc2)cccc1[N+](=O)[O-] | active: 9.2 µM | 
48 | CCOc1ccccc1-c1cncc(NC)n1 | inconclusive [inhibitor, partial curve, poor fit] | 
49 | CCn1c(SCc2ccc(F)cc2)nnc1-c1nn(-c2ccccc2)ccc1=O | inconclusive [inhibitor, single point] | 
50 | COc1ccccc1CNc1ccnc(-c2cccc(C#N)c2)n1 | inconclusive [inhibitor, single point] | 
51 | COc1ccc(-c2cn3nc(N4CCCC(C(=O)Nc5ccccc5OC)C4)sc3n2)cc1 (stereo unspecified) | active: 14.6 µM | 
52 | CCOC(=O)c1cnc(SC)nc1Sc1ccccc1Cl | inconclusive [inhibitor, single point] | 
53 | CC(=O)N1N=C(c2ccco2)CC1c1ccc(C)cc1 (stereo unspecified) | inactive | 
54 | O=C(O)c1ccccc1N/N=C/C1=C(N2CCOCC2)C(=C\c2ccccc2)/CC1 | active: 20.6 µM | 
55 | Cn1ccc2ccc(C3=CC(=O)C[C@H](c4ccc(F)cc4)C3)cc21 | active: 7.31 µM | 
56 | CC(C(=O)NC1C=CS(=O)(=O)C1)N1C(=O)/C(=C\c2ccccc2)SC1=S (stereo unspecified) | inconclusive [inhibitor, partial curve] | 
57 | COc1ccc(NC2=CC(=O)CC(c3ccccc3)C2)c(OC)c1 (stereo unspecified) | active: 4.11 µM | 
58 | NCC12CC3CC(C1)CC(CN)(C3)C2 | inconclusive [inhibitor, single point] | 
59 | Cc1nn(CC(=O)Nc2c(F)c(F)cc(F)c2F)c(=O)c2cccn12 | inactive | 
60 | O=C(Cc1ccc2c(c1)OCCO2)Nc1cc(C(F)(F)F)ccc1N1CCOCC1 | inconclusive [inhibitor, single point] | 
61 | O=C(Nc1ncccn1)c1cc(-c2cccc(Br)c2)nc2ccccc12 | inconclusive [inhibitor, single point] | 
62 | COc1c(O)cc2oc3cc(O)c(CC=C(C)C)c(O)c3c(=O)c2c1CC=C(C)C | active: 18.8 µM | 
63 | O=C(Nc1ccc(Cl)c(Cl)c1)OCCNC(=O)c1cccc(Cl)c1 | active: 6.51 µM | 
64 | Cc1c(Cl)ccc(S(=O)(=O)NCCN2CCOCC2)c1Cl | inactive | 
65 | CCc1nc2ccc(C(=O)NCCC(C)C)cn2c1N(C)Cc1nccs1 | inconclusive [inhibitor, single point] | 
66 | COc1ccc(CCNC(=O)CN(c2ccc(C)cc2)S(=O)(=O)c2c(C)noc2C)cc1OC | inconclusive [inhibitor, single point] | 
